# The other results are listed elsewhere or left out.
# Molecular target: T1, MBP-FoxP1dN (Mus musculus, UniProt P58462 326-579)
# T1 sequence: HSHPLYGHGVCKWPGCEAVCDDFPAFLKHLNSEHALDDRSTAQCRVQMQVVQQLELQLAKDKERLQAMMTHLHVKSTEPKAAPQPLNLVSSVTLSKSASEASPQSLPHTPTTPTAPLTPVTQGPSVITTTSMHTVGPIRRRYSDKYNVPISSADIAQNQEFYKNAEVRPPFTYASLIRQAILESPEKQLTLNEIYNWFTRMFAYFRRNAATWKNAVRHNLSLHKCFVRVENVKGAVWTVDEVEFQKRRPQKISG
# Assay: PD-seq (MBP pull-down with sequencing); 20 mM Tris-HCl pH 7.5, 100 mM NaCl, 1.5 mM MgCl2, 0.4 uM protein, 0.1 uM dsDNA library, 30 min, room temperature, amylose pull-down; high values mean tight binding
# Details: protein: recombinant; tags: His6-MBP; chain copies: 2; dsDNA, one strand shown
# Outline: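 Binding is the reads-per-million enrichment of pull-down relative to input, pooled across replicates. For this, 0.4 µM His6-MBP-tagged mouse FoxP3 or FoxP1 fragment lacking the N-terminus, made in E. coli, was incubated with 0.1 µM Klenow-filled double-stranded degenerate DNA library for 30 min at room temperature in Tris pH 7.5 buffer with NaCl and MgCl2. Complexes bound to amylose resin were washed three times before proteinase K released the DNA for PCR barcoding and Illumina sequencing.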
row,Sequence,binding signal
1,GATGATTGTTCTCCCAGCTGATGAATTGAAAGGTTCGAGTAAACAAATTTTCCTAATCTTTCTGTTCAAGCGCCATCTAC,0.83 RPM ratio (pull-down/input)
2,GATGATTGTTCTCCCAGCTGATGAATTTAGCATTTCGAGTAAACAAATTTTCCTAATCTTTCTGTTCAAGCGCCATCTAC,1.21 RPM ratio (pull-down/input)
3,GATGATTGTTCTCCCAGCTGATGAATTCTTCATCTCGAGTAAACAAATTTTCCTAATCTTTCTGTTCAAGCGCCATCTAC,0.813 RPM ratio (pull-down/input)
4,GATGATTGTTCTCCCAGCTGATGAATTATTTTCGTCGAGTAAACAAATTTTCCTAATCTTTCTGTTCAAGCGCCATCTAC,1.28 RPM ratio (pull-down/input)
5,GATGATTGTTCTCCCAGCTGATGAATTAATAGCATCGAGTAAACAAATTTTCCTAATCTTTCTGTTCAAGCGCCATCTAC,1.33 RPM ratio (pull-down/input)
6,GATGATTGTTCTCCCAGCTGATGAATTGATGCCCTCGAGTAAACAAATTTTCCTAATCTTTCTGTTCAAGCGCCATCTAC,1.11 RPM ratio (pull-down/input)
7,GATGATTGTTCTCCCAGCTGATGAATTACTTCCGTCGAGTAAACAAATTTTCCTAATCTTTCTGTTCAAGCGCCATCTAC,1 RPM ratio (pull-down/input)
8,GATGATTGTTCTCCCAGCTGATGAATTTCGGGTTTCGAGTAAACAAATTTTCCTAATCTTTCTGTTCAAGCGCCATCTAC,0.828 RPM ratio (pull-down/input)
9,GATGATTGTTCTCCCAGCTGATGAATTTGCTTTATCGAGTAAACAAATTTTCCTAATCTTTCTGTTCAAGCGCCATCTAC,1.1 RPM ratio (pull-down/input)
10,GATGATTGTTCTCCCAGCTGATGAATTTCTTAGATCGAGTAAACAAATTTTCCTAATCTTTCTGTTCAAGCGCCATCTAC,0.853 RPM ratio (pull-down/input)
11,GATGATTGTTCTCCCAGCTGATGAATTAACATGTTCGAGTAAACAAATTTTCCTAATCTTTCTGTTCAAGCGCCATCTAC,1.05 RPM ratio (pull-down/input)
12,GATGATTGTTCTCCCAGCTGATGAATTGACCTGGTCGAGTAAACAAATTTTCCTAATCTTTCTGTTCAAGCGCCATCTAC,0.841 RPM ratio (pull-down/input)
13,GATGATTGTTCTCCCAGCTGATGAATTAGACCCCTCGAGTAAACAAATTTTCCTAATCTTTCTGTTCAAGCGCCATCTAC,0.845 RPM ratio (pull-down/input)
14,GATGATTGTTCTCCCAGCTGATGAATTGAGTGGCTCGAGTAAACAAATTTTCCTAATCTTTCTGTTCAAGCGCCATCTAC,0.823 RPM ratio (pull-down/input)
15,GATGATTGTTCTCCCAGCTGATGAATTTGCGGAATCGAGTAAACAAATTTTCCTAATCTTTCTGTTCAAGCGCCATCTAC,1.02 RPM ratio (pull-down/input)
16,GATGATTGTTCTCCCAGCTGATGAATTGCTCAAGTCGAGTAAACAAATTTTCCTAATCTTTCTGTTCAAGCGCCATCTAC,0.907 RPM ratio (pull-down/input)
17,GATGATTGTTCTCCCAGCTGATGAATTTACCCCATCGAGTAAACAAATTTTCCTAATCTTTCTGTTCAAGCGCCATCTAC,1.19 RPM ratio (pull-down/input)
18,GATGATTGTTCTCCCAGCTGATGAATTAAAGTGTTCGAGTAAACAAATTTTCCTAATCTTTCTGTTCAAGCGCCATCTAC,1.05 RPM ratio (pull-down/input)
19,GATGATTGTTCTCCCAGCTGATGAATTAGTCGTGTCGAGTAAACAAATTTTCCTAATCTTTCTGTTCAAGCGCCATCTAC,0.885 RPM ratio (pull-down/input)
20,GATGATTGTTCTCCCAGCTGATGAATTGGATGTTTCGAGTAAACAAATTTTCCTAATCTTTCTGTTCAAGCGCCATCTAC,1.08 RPM ratio (pull-down/input)
21,GATGATTGTTCTCCCAGCTGATGAATTCGTCGGCTCGAGTAAACAAATTTTCCTAATCTTTCTGTTCAAGCGCCATCTAC,0.772 RPM ratio (pull-down/input)

row,Sequence,binding signal
1,GATGATTGTTCTCCCAGCTGATGAATTAGAGGCTTCGAGTAAACAAATTTTCCTAATCTTTCTGTTCAAGCGCCATCTAC,0.965 RPM ratio (pull-down/input)
2,GATGATTGTTCTCCCAGCTGATGAATTATACGCATCGAGTAAACAAATTTTCCTAATCTTTCTGTTCAAGCGCCATCTAC,1.21 RPM ratio (pull-down/input)
3,GATGATTGTTCTCCCAGCTGATGAATTTTTATCGTCGAGTAAACAAATTTTCCTAATCTTTCTGTTCAAGCGCCATCTAC,1.14 RPM ratio (pull-down/input)
4,GATGATTGTTCTCCCAGCTGATGAATTACTTTCGTCGAGTAAACAAATTTTCCTAATCTTTCTGTTCAAGCGCCATCTAC,0.988 RPM ratio (pull-down/input)
5,GATGATTGTTCTCCCAGCTGATGAATTAGGGACCTCGAGTAAACAAATTTTCCTAATCTTTCTGTTCAAGCGCCATCTAC,0.777 RPM ratio (pull-down/input)
6,GATGATTGTTCTCCCAGCTGATGAATTATCAGACTCGAGTAAACAAATTTTCCTAATCTTTCTGTTCAAGCGCCATCTAC,0.844 RPM ratio (pull-down/input)
7,GATGATTGTTCTCCCAGCTGATGAATTACGGGAATCGAGTAAACAAATTTTCCTAATCTTTCTGTTCAAGCGCCATCTAC,1.04 RPM ratio (pull-down/input)
8,GATGATTGTTCTCCCAGCTGATGAATTCCCGCTGTCGAGTAAACAAATTTTCCTAATCTTTCTGTTCAAGCGCCATCTAC,0.872 RPM ratio (pull-down/input)
9,GATGATTGTTCTCCCAGCTGATGAATTCCTGGCTTCGAGTAAACAAATTTTCCTAATCTTTCTGTTCAAGCGCCATCTAC,0.73 RPM ratio (pull-down/input)
10,GATGATTGTTCTCCCAGCTGATGAATTTTTTGTCTCGAGTAAACAAATTTTCCTAATCTTTCTGTTCAAGCGCCATCTAC,0.905 RPM ratio (pull-down/input)
11,GATGATTGTTCTCCCAGCTGATGAATTACAGTCTTCGAGTAAACAAATTTTCCTAATCTTTCTGTTCAAGCGCCATCTAC,1.12 RPM ratio (pull-down/input)
12,GATGATTGTTCTCCCAGCTGATGAATTTAGGTCCTCGAGTAAACAAATTTTCCTAATCTTTCTGTTCAAGCGCCATCTAC,0.858 RPM ratio (pull-down/input)
13,GATGATTGTTCTCCCAGCTGATGAATTCGGAGGCTCGAGTAAACAAATTTTCCTAATCTTTCTGTTCAAGCGCCATCTAC,0.802 RPM ratio (pull-down/input)
14,GATGATTGTTCTCCCAGCTGATGAATTAGTATTGTCGAGTAAACAAATTTTCCTAATCTTTCTGTTCAAGCGCCATCTAC,2.55 RPM ratio (pull-down/input)
15,GATGATTGTTCTCCCAGCTGATGAATTCTGCTAATCGAGTAAACAAATTTTCCTAATCTTTCTGTTCAAGCGCCATCTAC,0.985 RPM ratio (pull-down/input)
16,GATGATTGTTCTCCCAGCTGATGAATTCCATTTTTCGAGTAAACAAATTTTCCTAATCTTTCTGTTCAAGCGCCATCTAC,0.853 RPM ratio (pull-down/input)
17,GATGATTGTTCTCCCAGCTGATGAATTGATAAGTTCGAGTAAACAAATTTTCCTAATCTTTCTGTTCAAGCGCCATCTAC,1.11 RPM ratio (pull-down/input)
18,GATGATTGTTCTCCCAGCTGATGAATTTCCCCCGTCGAGTAAACAAATTTTCCTAATCTTTCTGTTCAAGCGCCATCTAC,0.786 RPM ratio (pull-down/input)
19,GATGATTGTTCTCCCAGCTGATGAATTAGTCGACTCGAGTAAACAAATTTTCCTAATCTTTCTGTTCAAGCGCCATCTAC,0.912 RPM ratio (pull-down/input)
20,GATGATTGTTCTCCCAGCTGATGAATTGGCTAGCTCGAGTAAACAAATTTTCCTAATCTTTCTGTTCAAGCGCCATCTAC,0.808 RPM ratio (pull-down/input)
21,GATGATTGTTCTCCCAGCTGATGAATTAGACTGGTCGAGTAAACAAATTTTCCTAATCTTTCTGTTCAAGCGCCATCTAC,0.848 RPM ratio (pull-down/input)

row,Sequence,binding signal
1,GATGATTGTTCTCCCAGCTGATGAATTGAGGGAATCGAGTAAACAAATTTTCCTAATCTTTCTGTTCAAGCGCCATCTAC,0.883 RPM ratio (pull-down/input)
2,GATGATTGTTCTCCCAGCTGATGAATTATGCGATTCGAGTAAACAAATTTTCCTAATCTTTCTGTTCAAGCGCCATCTAC,1.06 RPM ratio (pull-down/input)
3,GATGATTGTTCTCCCAGCTGATGAATTAAAAGATTCGAGTAAACAAATTTTCCTAATCTTTCTGTTCAAGCGCCATCTAC,0.939 RPM ratio (pull-down/input)
4,GATGATTGTTCTCCCAGCTGATGAATTAGCGGTGTCGAGTAAACAAATTTTCCTAATCTTTCTGTTCAAGCGCCATCTAC,0.861 RPM ratio (pull-down/input)
5,GATGATTGTTCTCCCAGCTGATGAATTTGTCCGCTCGAGTAAACAAATTTTCCTAATCTTTCTGTTCAAGCGCCATCTAC,0.946 RPM ratio (pull-down/input)
6,GATGATTGTTCTCCCAGCTGATGAATTGAACGTATCGAGTAAACAAATTTTCCTAATCTTTCTGTTCAAGCGCCATCTAC,0.969 RPM ratio (pull-down/input)
7,GATGATTGTTCTCCCAGCTGATGAATTATTAATATCGAGTAAACAAATTTTCCTAATCTTTCTGTTCAAGCGCCATCTAC,1.39 RPM ratio (pull-down/input)
8,GATGATTGTTCTCCCAGCTGATGAATTCGGGCCTTCGAGTAAACAAATTTTCCTAATCTTTCTGTTCAAGCGCCATCTAC,0.807 RPM ratio (pull-down/input)
9,GATGATTGTTCTCCCAGCTGATGAATTTAATAGATCGAGTAAACAAATTTTCCTAATCTTTCTGTTCAAGCGCCATCTAC,0.916 RPM ratio (pull-down/input)
10,GATGATTGTTCTCCCAGCTGATGAATTTCTGCTCTCGAGTAAACAAATTTTCCTAATCTTTCTGTTCAAGCGCCATCTAC,0.769 RPM ratio (pull-down/input)
11,GATGATTGTTCTCCCAGCTGATGAATTGACGGTCTCGAGTAAACAAATTTTCCTAATCTTTCTGTTCAAGCGCCATCTAC,0.969 RPM ratio (pull-down/input)
12,GATGATTGTTCTCCCAGCTGATGAATTATTGGGGTCGAGTAAACAAATTTTCCTAATCTTTCTGTTCAAGCGCCATCTAC,1.1 RPM ratio (pull-down/input)
13,GATGATTGTTCTCCCAGCTGATGAATTACAGAGCTCGAGTAAACAAATTTTCCTAATCTTTCTGTTCAAGCGCCATCTAC,0.895 RPM ratio (pull-down/input)
14,GATGATTGTTCTCCCAGCTGATGAATTAATTTAGTCGAGTAAACAAATTTTCCTAATCTTTCTGTTCAAGCGCCATCTAC,1.02 RPM ratio (pull-down/input)
15,GATGATTGTTCTCCCAGCTGATGAATTATGTTCGTCGAGTAAACAAATTTTCCTAATCTTTCTGTTCAAGCGCCATCTAC,1.06 RPM ratio (pull-down/input)
16,GATGATTGTTCTCCCAGCTGATGAATTACCAGATTCGAGTAAACAAATTTTCCTAATCTTTCTGTTCAAGCGCCATCTAC,1.09 RPM ratio (pull-down/input)
17,GATGATTGTTCTCCCAGCTGATGAATTGCAAAAGTCGAGTAAACAAATTTTCCTAATCTTTCTGTTCAAGCGCCATCTAC,1.27 RPM ratio (pull-down/input)
18,GATGATTGTTCTCCCAGCTGATGAATTTGCGGCCTCGAGTAAACAAATTTTCCTAATCTTTCTGTTCAAGCGCCATCTAC,0.854 RPM ratio (pull-down/input)
19,GATGATTGTTCTCCCAGCTGATGAATTAGGATTTTCGAGTAAACAAATTTTCCTAATCTTTCTGTTCAAGCGCCATCTAC,0.944 RPM ratio (pull-down/input)
20,GATGATTGTTCTCCCAGCTGATGAATTATGGAACTCGAGTAAACAAATTTTCCTAATCTTTCTGTTCAAGCGCCATCTAC,0.879 RPM ratio (pull-down/input)
21,GATGATTGTTCTCCCAGCTGATGAATTACCGTAATCGAGTAAACAAATTTTCCTAATCTTTCTGTTCAAGCGCCATCTAC,1.48 RPM ratio (pull-down/input)

# Reference: paper PMC12820563, “FoxP3 forms a head-to-head dimer in vivo and stabilizes its multimerization on adjacent microsatellites”
